Measured values reported in the BET-seq Pho4 binding data (Le et al. 2018).
This is one part of the list. The energies were worked out here from pooled read counts, against the library average; single values are noisy.

Each sequence was assayed against T1, Pho4 (S. cerevisiae) (UniProt P07270) (assay: relative binding free energy (BET-seq); higher = weaker binding). Conditions: reference: library average.
T1 sequence: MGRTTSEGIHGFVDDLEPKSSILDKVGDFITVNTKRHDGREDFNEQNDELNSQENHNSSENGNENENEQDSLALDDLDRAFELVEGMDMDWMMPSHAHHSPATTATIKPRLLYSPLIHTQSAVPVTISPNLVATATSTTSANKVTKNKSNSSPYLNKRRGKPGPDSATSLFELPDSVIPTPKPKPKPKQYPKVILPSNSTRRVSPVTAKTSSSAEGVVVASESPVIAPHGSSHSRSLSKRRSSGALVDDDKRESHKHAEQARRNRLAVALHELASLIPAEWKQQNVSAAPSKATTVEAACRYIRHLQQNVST

Sequence | relative binding free energy
TGTCACACGTGTTGCT | 0.15 kcal/mol
GGTAGCACGTGTTATG | 0.05 kcal/mol
AATTTCACGTGGATCT | 0.33 kcal/mol
GTTTACACGTGTGTTT | 0.13 kcal/mol
ATTGGCACGTGGCGCG | -0.18 kcal/mol
AGTGACACGTGGAAGT | -0.08 kcal/mol
CTTTTCACGTGTCGGT | 0.31 kcal/mol
TGGTACACGTGAGAGC | 0.2 kcal/mol
TCTGTCACGTGATGTG | 0.33 kcal/mol
ATCATCACGTGTGGAT | 0.16 kcal/mol
AAGATCACGTGTATTG | 0.11 kcal/mol
TCTTGCACGTGCGGTG | -0.04 kcal/mol
CTGGGCACGTGTGTGA | -0.16 kcal/mol
CGGAGCACGTGGCTGT | -0.13 kcal/mol
TAGGTCACGTGCCGTT | -0.01 kcal/mol
GGCAGCACGTGGGACG | -0.09 kcal/mol
TTGTGCACGTGGTTCT | 0.03 kcal/mol
CGGTTCACGTGAGTGG | 0.22 kcal/mol
GGTTGCACGTGTTCTG | 0.23 kcal/mol
TTTAGCACGTGGCGGT | -0.22 kcal/mol
TAGTTCACGTGTGGTG | 0.4 kcal/mol
TATCACACGTGAGTGG | 0.25 kcal/mol
CTATGCACGTGGGATG | -0.16 kcal/mol
TTGGTCACGTGTATAT | 0.05 kcal/mol
AGTAGCACGTGATGTA | 0.02 kcal/mol
TATTACACGTGTAATA | 0.18 kcal/mol

Sequence | relative binding free energy
CTGGTCACGTGGGGGA | 0.01 kcal/mol
GAGTACACGTGTGGAT | 0.14 kcal/mol
CTGTTCACGTGGCGGT | 0.18 kcal/mol
TTTTGCACGTGTTATG | 0.02 kcal/mol
TTTGACACGTGAGATG | 0.23 kcal/mol
GCATTCACGTGGGTAG | 0.28 kcal/mol
CATTACACGTGTGGTA | 0.21 kcal/mol
TTTATCACGTGTAGGG | 0.13 kcal/mol
GGTGGCACGTGGCTGG | -0.1 kcal/mol
GGTGACACGTGTTTCG | 0.09 kcal/mol
GTCTTCACGTGGTGAT | 0.27 kcal/mol
CTGTACACGTGGAAGG | 0.28 kcal/mol
CGTTCCACGTGGGGGT | -0.16 kcal/mol
ATGAGCACGTGAAGGG | 0.17 kcal/mol
GTAGACACGTGGAGTT | 0.05 kcal/mol
TCAGTCACGTGGGGAG | -0.01 kcal/mol
TAGGGCACGTGGGGGA | -0.29 kcal/mol
ATCGTCACGTGAAGTG | 0.16 kcal/mol
GGCGTCACGTGGTGAA | -0.01 kcal/mol
TTATGCACGTGAGGCA | 0.23 kcal/mol
TCGAGCACGTGAGGTG | 0.08 kcal/mol
TGTTACACGTGTAGGC | 0.16 kcal/mol
ATTAGCACGTGCAGTG | -0.09 kcal/mol
GTCGGCACGTGTTAGA | -0.06 kcal/mol
GCGGACACGTGGGTGA | -0.09 kcal/mol
GGGATCACGTGGTTCT | 0.21 kcal/mol

Sequence | relative binding free energy
GTTAGCACGTGGTATA | -0.11 kcal/mol
CGATGCACGTGGGAGG | -0.3 kcal/mol
TACATCACGTGGTTGG | 0.16 kcal/mol
ATGATCACGTGGATGG | -0.05 kcal/mol
TGCTTCACGTGGTAGG | 0.24 kcal/mol
AGATACACGTGTCTGT | 0.05 kcal/mol
TGGCTCACGTGGGTTT | 0.17 kcal/mol
ATGAACACGTGTGGTG | -0.03 kcal/mol
TCATGCACGTGTCGGG | -0.09 kcal/mol
ATACGCACGTGGCGGT | -0.23 kcal/mol
GCTTGCACGTGTAGTG | 0.07 kcal/mol
TTTCTCACGTGTAATA | 0.12 kcal/mol
TTCAGCACGTGTAGGT | -0.08 kcal/mol
ATAGGCACGTGTCTGT | -0.06 kcal/mol
GGTATCACGTGGGAAG | 0.05 kcal/mol
GTAGCCACGTGTGGGT | 0.05 kcal/mol
AGTGCCACGTGGCGGT | -0.13 kcal/mol
GTAATCACGTGAGTTC | 0.46 kcal/mol
TTGGTCACGTGGGGCC | 0 kcal/mol
GGCAACACGTGGAGGG | -0.03 kcal/mol
GAGAGCACGTGTAGGT | -0.12 kcal/mol
GTAGGCACGTGTGAGG | 0.04 kcal/mol
AAGTGCACGTGGGCGG | -0.18 kcal/mol
CAAAGCACGTGTGGTG | -0.04 kcal/mol
ATTGGCACGTGGTGCG | -0.24 kcal/mol
GGGACCACGTGGGGAG | -0.13 kcal/mol

Sequence | relative binding free energy
AGAGTCACGTGGTAGA | 0.17 kcal/mol
AAGTGCACGTGCAAGG | 0.01 kcal/mol
TATCACACGTGTTTGG | 0.06 kcal/mol
GGCGGCACGTGGCAGA | -0.09 kcal/mol
AACTTCACGTGTGTTA | 0.24 kcal/mol
GTCCGCACGTGATGTG | 0.09 kcal/mol
TCGTTCACGTGTTTGG | 0.27 kcal/mol
AGGGCCACGTGCGGTG | -0.25 kcal/mol
CCGGGCACGTGAGGGT | 0.12 kcal/mol
GTGGACACGTGGGGAC | 0.01 kcal/mol
ACGGTCACGTGGGGTG | -0.24 kcal/mol
CCGGGCACGTGGTGAG | -0.16 kcal/mol
TAAGGCACGTGGGCGT | -0.37 kcal/mol
CTGGTCACGTGGAGGG | 0.07 kcal/mol
GCGGGCACGTGTGTTG | -0.04 kcal/mol
AAGTTCACGTGCCGGG | 0.18 kcal/mol
GTAGTCACGTGATCGG | 0.19 kcal/mol
CTCTTCACGTGGTGGA | 0.27 kcal/mol
AGGTTCACGTGACGGG | 0.29 kcal/mol
TTTTACACGTGAGAGA | 0.26 kcal/mol
ATGATCACGTGTTGGA | 0.18 kcal/mol
TGTGGCACGTGGCGTC | -0.25 kcal/mol
GCCTACACGTGGTTGT | 0.25 kcal/mol
GGGGACACGTGTAGTA | 0.06 kcal/mol
GGGGTCACGTGTTAGT | 0.24 kcal/mol
TATTTCACGTGGATTG | 0.24 kcal/mol

Sequence | relative binding free energy
TGGGACACGTGAGAAG | 0.24 kcal/mol
AGTTACACGTGTACAG | 0.25 kcal/mol
GTCTACACGTGGGATG | 0.09 kcal/mol
TGATGCACGTGAGTCT | 0.28 kcal/mol
GGGCACACGTGGGTTG | -0.02 kcal/mol
TAGGGCACGTGCTGTA | -0.29 kcal/mol
ATAGTCACGTGATGGT | 0.07 kcal/mol
TTTATCACGTGTTCAT | 0.16 kcal/mol
TTGATCACGTGTGAAA | 0.18 kcal/mol
GGCGGCACGTGGAGCA | 0.01 kcal/mol
TAAAACACGTGTGGCG | 0.03 kcal/mol
TAGTTCACGTGTTATG | 0.21 kcal/mol
TGATGCACGTGTGGTG | 0.05 kcal/mol
TGTGACACGTGTTTCT | -0.01 kcal/mol
GGGCTCACGTGGGGAA | 0.28 kcal/mol
ATTCACACGTGTGAGT | 0.15 kcal/mol
CTGATCACGTGAGAGG | 0.34 kcal/mol
GTGTCCACGTGAGCGT | 0.32 kcal/mol
TATATCACGTGTTTCT | 0.07 kcal/mol
CCGGGCACGTGTGGCT | 0.07 kcal/mol
AAGGGCACGTGGTTGT | -0.08 kcal/mol
GGTATCACGTGTCTAG | 0.15 kcal/mol
AGGGACACGTGTTTCT | 0.11 kcal/mol
CATTTCACGTGCGTGT | 0.14 kcal/mol
GGGATCACGTGGGGCC | 0.14 kcal/mol
TGAGGCACGTGCAGTG | 0.01 kcal/mol

Sequence | relative binding free energy
GTTGGCACGTGAGATA | 0.33 kcal/mol
CGATTCACGTGAGGTT | 0.32 kcal/mol
TATTTCACGTGTCTTC | 0.33 kcal/mol
GTGGCCACGTGCGTTT | -0.19 kcal/mol
TTGTACACGTGAATGT | 0.23 kcal/mol
GCGTACACGTGTAGTT | 0.16 kcal/mol
TGGTACACGTGACTTA | 0.36 kcal/mol
AGAAACACGTGATTGG | 0.19 kcal/mol
TCGGGCACGTGGGAGT | -0.15 kcal/mol
GACTGCACGTGGGTGT | -0.12 kcal/mol
GATTACACGTGCGGGT | 0.21 kcal/mol
GCAAGCACGTGGGGGC | -0.07 kcal/mol
TCCGTCACGTGTAGGT | 0.19 kcal/mol
TTCTGCACGTGTTGAG | -0.04 kcal/mol
GGATTCACGTGAAGGA | 0.49 kcal/mol
TAGCGCACGTGGAGTT | -0.08 kcal/mol
TTAGGCACGTGTTGCA | -0.18 kcal/mol
TTTGTCACGTGGGCCA | 0.08 kcal/mol
TGGTGCACGTGAAGCG | 0.21 kcal/mol
ATTTACACGTGACGGG | 0.14 kcal/mol
GGGCTCACGTGCTTGG | 0.22 kcal/mol
TCTTGCACGTGGGTTT | -0.24 kcal/mol
TTGTTCACGTGTCCTG | 0.2 kcal/mol
ATTATCACGTGGGGAT | 0.06 kcal/mol
ATGGTCACGTGCTGGG | 0.06 kcal/mol
GGGGTCACGTGGTACG | 0.12 kcal/mol

Sequence | relative binding free energy
TTTGACACGTGTCGGA | 0.05 kcal/mol
GGGAGCACGTGGGGTC | -0.21 kcal/mol
GGTGACACGTGTACGG | 0.03 kcal/mol
TTCGCCACGTGTTAGT | -0.02 kcal/mol
GATCGCACGTGAGTTG | 0.31 kcal/mol
GTTTTCACGTGGAGAA | 0.45 kcal/mol
TGAATCACGTGTGTGT | 0.21 kcal/mol
TGAAACACGTGGGAGG | -0.01 kcal/mol
CAGTGCACGTGTGGGA | -0.06 kcal/mol
TAGTGCACGTGGGATC | -0.19 kcal/mol
TGTGCCACGTGGTAGG | -0.04 kcal/mol
GGCCGCACGTGGGGAT | -0.14 kcal/mol
GTTTACACGTGGTAGA | 0.15 kcal/mol
GATTACACGTGGGGTC | 0.16 kcal/mol
TTGGCCACGTGGGTGT | -0.17 kcal/mol
CTGCTCACGTGTGGTG | 0.22 kcal/mol
GGGGACACGTGGGTGG | -0.05 kcal/mol
TCGGGCACGTGGGCTC | -0.14 kcal/mol
CGTTGCACGTGTGTGT | -0.08 kcal/mol
AGTGCCACGTGATTTG | 0.02 kcal/mol
TGCGACACGTGGTTGG | -0.11 kcal/mol
GCGGGCACGTGTAGTA | -0.01 kcal/mol
TGAGTCACGTGGGGCT | 0.07 kcal/mol
AGGTACACGTGTGCGT | -0.01 kcal/mol
AGGGTCACGTGGAAGC | 0.08 kcal/mol
AGGTTCACGTGATAAG | 0.06 kcal/mol

Sequence | relative binding free energy
GGAGGCACGTGACGCT | 0.1 kcal/mol
ATGTGCACGTGTGGCT | -0.09 kcal/mol
TTCGGCACGTGTGTAG | -0.15 kcal/mol
AAGGGCACGTGAGGGT | 0.14 kcal/mol
ATCTTCACGTGTAGGT | 0.19 kcal/mol
AGGGCCACGTGTGATG | -0.12 kcal/mol
GATTTCACGTGTTCAG | 0.36 kcal/mol
TTTGGCACGTGGAGCC | 0.02 kcal/mol
CGTATCACGTGTGTGT | 0.09 kcal/mol
CGGGTCACGTGTGGAG | 0.15 kcal/mol
GTAGGCACGTGAGTGG | 0.17 kcal/mol
GAAGACACGTGCGGTG | -0.02 kcal/mol
GATCACACGTGGAGTG | 0.15 kcal/mol
TTTGTCACGTGGCATA | -0.01 kcal/mol
CATGTCACGTGGGGGT | 0.05 kcal/mol
CGCGTCACGTGTGGGG | 0.11 kcal/mol
TTAGGCACGTGGAGAT | -0.1 kcal/mol
TGTATCACGTGCCTGG | -0.04 kcal/mol
TTGGGCACGTGATAGA | -0.06 kcal/mol
CATGACACGTGGTAAG | 0.22 kcal/mol
TCTTTCACGTGAGGTA | 0.33 kcal/mol
GTTTACACGTGACTGT | 0.11 kcal/mol
TATGACACGTGGTGTC | -0.02 kcal/mol
AGGGTCACGTGTTTCA | 0.12 kcal/mol
TAGTGCACGTGTTCAG | -0.05 kcal/mol
GGGTACACGTGATCTG | 0.35 kcal/mol

Sequence | relative binding free energy
TGTATCACGTGCCTTT | 0.16 kcal/mol
GGTTACACGTGTAATA | 0.31 kcal/mol
ATGTTCACGTGAAGCT | 0.42 kcal/mol
GTGGCCACGTGAGGTT | 0.37 kcal/mol
AGTAGCACGTGGTTGA | 0.01 kcal/mol
AGGGTCACGTGCGGGC | 0.08 kcal/mol
GGAGGCACGTGTTTAT | 0.03 kcal/mol
TTCTCCACGTGTTTTG | 0.17 kcal/mol
TGATTCACGTGGTGTG | 0.24 kcal/mol
TTAGTCACGTGCATAT | 0 kcal/mol
GGCGGCACGTGCTGAG | 0.02 kcal/mol
CGTTCCACGTGGTGGT | 0.11 kcal/mol
GAATGCACGTGGGTGG | -0.08 kcal/mol
GTGTTCACGTGAGGGT | 0.52 kcal/mol
TTGAGCACGTGGGGCG | -0.26 kcal/mol
GAGAGCACGTGGTTGA | -0.22 kcal/mol
TGTGCCACGTGCGTGC | -0.07 kcal/mol
GGTAACACGTGAGGCT | 0.25 kcal/mol
GGTCACACGTGTTCTT | 0.2 kcal/mol
GTTCTCACGTGCTGTG | 0.14 kcal/mol
TTAGTCACGTGTAAGG | 0.13 kcal/mol
TAAATCACGTGTTCTT | 0.13 kcal/mol
